# Source: the supplement of paper PMC4166925
# ± gives the standard deviation of the averaged measurements. In all, about 33,000 sequences were measured (“E-score (dimensionless, -0.5 to 0.5)”: median about -0.046, highest 2% from about 0.36 on). Some of the results follow.
# Test system: T1, SpTbr T-box DNA-binding domain (GST fusion)
# T1 sequence: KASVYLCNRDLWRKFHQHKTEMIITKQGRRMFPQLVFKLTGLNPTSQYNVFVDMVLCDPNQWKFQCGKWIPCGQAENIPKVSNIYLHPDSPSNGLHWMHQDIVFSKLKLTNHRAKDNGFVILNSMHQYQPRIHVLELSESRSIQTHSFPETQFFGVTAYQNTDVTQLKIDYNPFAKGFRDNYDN
# Test: PBM E-score of 8-mer (E-score (dimensionless, -0.5 to 0.5)); Tbr is Tbrain of the sea star Patiria miniata (Pm) or the sea urchin Strongylocentrotus purpuratus (Sp); higher = stronger binding preference; most listed sequences are background and not binding sites
# Conditions: the construct has about 5 more residues each side
# Method in brief: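 Each ungapped 8-mer received an enrichment E-score from the Universal PBM Analysis Suite, averaged over duplicate arrays. The proteins were Tbr T-box DNA-binding domains, covering the whole T-box plus about five flanking residues, fused to GST and expressed in BL21 E. coli at 20 °C before glutathione affinity purification. Universal Agilent oligonucleotide arrays were made double-stranded by primer extension and incubated with 200 nM protein in PBS (pH 7.5). The arrays were then scanned and quantified, and every 8-mer was scored from probe intensities.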
row,Sequence,PBM E-score of 8-mer
1,GGAGTCAA,-0.0304 ± 0.04
2,AAATACGT,-0.0235 ± 0.059
3,CTCTGCGA,-0.00686 ± 0.039
4,CTCGTTAC,-0.116 ± 0.031
5,TATGTCGA,-0.00544 ± 0.04
6,AAGGCTCC,-0.175 ± 0.025
7,CCGACCCC,-0.208 ± 0.015
8,CTTGTCTA,-0.118 ± 0.0089
9,AACGAACG,-0.0965 ± 0.0026
10,CTATCACC,0.363 ± 0.01
11,AGATCCCA,-0.01 ± 0.053
12,AGACGCTC,-0.111 ± 0.057
13,CTTCTTGA,-0.0972 ± 0.025
14,CTTTACAA,-0.00219 ± 0.03
15,AAGCGCTG,-0.0202 ± 0.041
16,CTCAAGGA,-0.074 ± 0.0048
17,TCAGCCGA,-0.139 ± 0.054
18,ACCCATAG,-0.16 ± 0.025
19,AAGACCTC,0.00991 ± 0.032
20,GCAGGACA,-0.0639 ± 0.0049
21,CCTCGCTA,0.176 ± 0.0058
22,CTGTTACA,0.255 ± 0.034

row,Sequence,PBM E-score of 8-mer
1,ATATAAGA,-0.259 ± 0.032
2,ACCCGTTA,0.194 ± 0.072
3,AAATAAGA,-0.0971 ± 0.0036
4,CAATGCTA,-0.125 ± 0.0024
5,CGTTTGCA,0.144 ± 0.025
6,CCGCTCGC,0.16 ± 0.068
7,CAAGGAAC,-0.142 ± 0.03
8,AGGCCAAA,-0.239 ± 0.064
9,CTGTCGAA,0.14 ± 0.011
10,AGTGATAA,0.278 ± 0.067
11,AAGATTCG,-0.0796 ± 0.047
12,GCTTAAGA,-0.247 ± 0.093
13,AAAGCAAG,-0.0849 ± 0.05
14,AGCTAACG,0.236 ± 0.016
15,ATGCAGAC,-0.142 ± 0.014
16,TCAGGCAA,-0.143 ± 0.02
17,CCCATGAA,-0.0823 ± 0.044
18,CTTCCAAA,-0.239 ± 0.021
19,CGGAGCTC,-0.317 ± 0.066
20,AACAAATG,-0.00755 ± 0.028
21,CCTTTTAC,0.0526 ± 0.015
22,ACTTAGAT,0.0897 ± 0.095

row,Sequence,PBM E-score of 8-mer
1,GGACATAC,-0.00067 ± 0.081
2,CCCGCGAA,0.371 ± 0.019
3,ATCGTAAG,-0.124 ± 0.024
4,AGTAAAAC,-0.11 ± 0.027
5,ACTGCCGC,-0.0781 ± 0.058
6,CGTGCATC,-0.1 ± 0.096
7,GAAGATCC,-0.101 ± 0.0088
8,CAGCTAGA,-0.0759 ± 0.0079
9,AACGTTTG,0.0583 ± 0.0087
10,CATAGAAC,-0.0496 ± 0.053
11,AGATAACA,0.233 ± 0.0033
12,GTGCTCTA,-0.178 ± 0.029
13,CCCTCTGC,-0.0643 ± 0.042
14,CCGATACA,0.0669 ± 0.01
15,CTCAAACC,-0.13 ± 0.14
16,AATGGCGG,-0.148 ± 0.066
17,ATGCTGCG,-0.0119 ± 0.022
18,CCATCTTA,-0.1 ± 0.069
19,CACAGTAG,0.2015 ± 0.0019
20,CGAGGGAG,-0.0399 ± 0.058
21,ACTAGTTG,0.122 ± 0.026
22,GTACAGAC,-0.0773 ± 0.037

row,Sequence,PBM E-score of 8-mer
1,AATCGGTC,0.0169 ± 0.09
2,AAGTCTGG,-0.157 ± 0.017
3,ATCATATG,-0.0751 ± 0.011
4,CAGCAGCA,-0.0652 ± 0.075
5,AGTCTGCA,0.0204 ± 0.025
6,GATAACGA,0.0769 ± 0.01
7,GACTCGCA,0.221 ± 0.024
8,ATGTAGAG,-0.247 ± 0.0037
9,ATCCATCG,-0.0451 ± 0.031
10,CCCTCTAG,0.0174 ± 0.018
11,CACAATGA,0.0327 ± 0.0024
12,CAAAATTG,-0.121 ± 0.018
13,AACCCGGC,-0.109 ± 0.003
14,AGTCGGGA,0.138 ± 0.014
15,GACTGCGC,-0.0942 ± 0.032
16,TAGGGGCA,-0.127 ± 0.04
17,CTTTAAAC,-0.114 ± 0.023
18,CGGATGAA,-0.224 ± 0.015
19,GCTCTTCA,0.083 ± 0.029
20,CATACTCA,-0.0655 ± 0.046
